Values joined by “and” are separate entries in the source; they are usually repeats but may differ in a detail not shown here. Equal values may be shown once. In all, about 410,000 compounds went through this assay and about 5,000 (1.2%) were called active. This list was built around the results that the source calls inconclusive (neither active nor inactive); the mix of calls is not that of the screen. Calls come from the whole dose curve; as a rule, active = well fitted inhibition curve with a large enough effect; inconclusive = small, poorly fitted or top-dose-only effect; inactive = no such curve, though single readings can be large or run the other way. A potency beside an inconclusive call is a rough fit, not a confirmed value.
Experiment: qHTS for Inhibitors of TGF-b; note: nearly all actives have a fitted effect of over 65% in size
Conditions: HepG2 CAGA-GFP TGF-b/SMAD3 reporter, GFP fluorescence, 18 h, TGF-beta stimulated, 500 pg/mL final; series mostly up to 46.1 µM; activity, negative = inhibition: at the top concentration
Summary of the method: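 Read-out: total well GFP (ex488/em500-530) summed from mean per-cell fluorescence. Cells: HEPG2 CAGA-GFP, 1% FBS DMEM, 18 h at 37 degrees C with 500 pg/mL final TGF-beta. Unstimulated wells served as the full-inhibition control; stimulated DMSO wells = 0%.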
% is set by controls: 0 for no effect and ±100 for the full control effect; potency is the fitted concentration of half-maximal effect; tags give direction and shape of the fitted curve.

Structure (SMILES) | Potency | activity, negative = inhibition
COc1ccc(C(=O)c2c(C)oc3ccc(O)cc23)cc1 | inconclusive: 22.4 µM [inhibitor, single point] | –
CCCCNc1ccc(/C=C2\C=Cc3ccccc32)cc1 | – | inactive: -27.7%
COc1ccccc1C(=O)NCCc1csc(-c2ccc(C(F)(F)F)cc2)n1 | active: 8.91 µM | –
C=CC[n+]1c(-c2ccc(OC)cc2)csc1NNC(=O)Nc1ccccc1 | inconclusive: 3.98 µM [inhibitor, partial curve, poor fit] | –
CCn1c(=N)n(CC(O)c2ccco2)c2ccccc21 (centres undefined) | – | inactive: 15.2%
COc1ccc(OC)c(-c2nc(CN3CCCCC3c3cccnc3)c(C)o2)c1 (centres undefined) | – | inactive: -8.08%
O=C(Nc1ccc(S(=O)(=O)N2CCCC2)cc1)N1c2ccccc2Sc2ccccc21 | inconclusive: 0.891 µM [inhibitor, full curve, poor fit] | –
COc1ccc(CN2C(=O)c3ccccc3C2C(=O)NC2CCCCCC2)c(OC)c1 (centres undefined) | inconclusive: 25.1 µM [inhibitor, single point] | –
O=C(Cn1ncc2c3ccccc3n(Cc3cccc(Cl)c3)c2c1=O)N1CCCCC1 | – | inactive: -7.48%
CCCNC(=O)CN(c1cccc(F)c1)S(C)(=O)=O | inconclusive: 4.47 µM [inhibitor, single point] | –
CCOC(=O)C1CCN(C(=O)Cn2nc(CC)n3c(cc4occc43)c2=O)CC1 | inconclusive: 0.708 µM [inhibitor, partial curve, poor fit] | –
N#Cc1c(N)n(CCc2ccc(F)cc2)c2nc3ccccc3nc12 | – | inactive: -0.367%
Cc1ccc(NC(c2cccc(Cl)c2)c2nnc(-c3ccccc3)o2)cc1F (centres undefined) | inconclusive: 10 µM [inhibitor, partial curve, poor fit] | –
COc1cc(C=O)ccc1Oc1nnnn1-c1ccc(C(N)=O)cc1 | inconclusive: 35.5 µM [inhibitor, single point] | –
COc1ccc(C2=NN(c3nc(-c4ccccc4)c(CC(=O)O)s3)C(c3ccco3)C2)cc1 (centres undefined) | – | inactive: -26.8%
O=S1(=O)[C@H]2C[C@H](CO)O[C@@]2(CO)CN1Cc1ccc(-c2cccc(Cl)c2)cc1 | inconclusive: 22.4 µM [inhibitor, single point] | –
CC(=O)Oc1ccc(C(=O)NCCc2ccccc2)cc1 | inconclusive: 3.16 µM [inhibitor, single point] | –
Cc1cc(S(=O)(=O)Nc2ncnc3sccc23)ccc1F | – | inactive: 0.771%
CCCCc1nn2c(C)c(-c3ccc(OCC)cc3)nc2s1 | inconclusive: 2.82 µM [inhibitor, full curve] | –
CCCN1C(C(=O)c2ccccc2)=C(OC(=O)C(C)(C)C)c2ccccc2S1(=O)=O | inconclusive: 22.4 µM [inhibitor, single point] | –
Cc1ccc(S(=O)(=O)N(C)c2ccc(C(=O)N3CCN(Cc4ccc5c(c4)OCO5)CC3)cc2)cc1 | inconclusive: 22.4 µM [inhibitor, single point] | –
COC(=O)c1ccc(CSc2nc3c(c(=O)n2-c2ccccc2)SCC3)o1 | inconclusive: 35.5 µM [inhibitor, single point] | –
Cc1ccc(NC(=O)CN2CCN(C3CCCCC3)C(=O)C2=O)cc1C | inconclusive: 6.31 µM [inhibitor, single point] | –

Structure (SMILES) | Potency | activity, negative = inhibition
COc1ccc(C(=O)c2coc3ccc(O)c(CN4CCCC4)c23)cc1 | – | inactive: -9.78%
COc1ccc(-c2noc(C3CCCN(C(=O)Nc4ccccc4F)C3)n2)cc1 (centres undefined) | – | inactive: -23.3%
O=C(CN(Cc1ccccc1Cl)C(=O)Cn1nnc(-c2cccs2)n1)NCC1CCCO1 (centres undefined) | inconclusive: 3.55 µM [inhibitor, full curve, poor fit] | –
COc1ccccc1/C=N/Nc1cc(C)nc2ccc(C)cc12 | – | inactive: 3.37%
CC(C)c1ccc(Nc2nnc(SC3CCOC3=O)s2)cc1 (centres undefined) | inconclusive: 22.4 µM [inhibitor, single point] | –
CN(C(=O)c1ccc(NC(=O)Cc2cccc(NC(=O)C3CCCN(C(=O)C4CC4)C3)c2)cc1)C1CCCC1 (centres undefined) | inconclusive: 0.501 µM [inhibitor, partial curve, poor fit] | –
O=C(C=Cc1cccnc1)c1ccccc1 | active: 20 µM | –
COc1ccc(Br)cc1CC1C(=O)Nc2ccccc21 (centres undefined) | – | inactive: -17.5%
CCN(CC)c1ccc(NC(=O)CN2CCN(c3nc(C)cc(C)n3)CC2)cc1 | – | inactive: 23%
CN(C)S(=O)(=O)c1ccc(NC(=O)c2ccccn2)cc1 | inconclusive: 6.31 µM [inhibitor, single point] | –
CCOC(=O)c1cccc(NC(=O)/C=C/c2ccc([N+](=O)[O-])cc2)c1 | inconclusive: 12.6 µM [inhibitor, partial curve, poor fit] | –
CCC(CC)C(=O)N(C)c1c(C)nc2c(OCCC3CCCCC3)cccn12 | inconclusive: 35.5 µM [inhibitor, single point] | –
O=C(CCN1CCOCC1)c1ccccc1 | inconclusive: 12.6 µM [inhibitor, partial curve, poor fit] | –
COc1ccc(-c2csc(NC(=O)CSCC(=O)Nc3cc(C)on3)n2)c(OC)c1 | – | inactive: -11%
C=CCNC(=O)c1ccc(CN2CCC(Cc3ccccc3)CC2)cc1 | – | inactive: -1.1%
OCCN(Cc1ccccc1)Cc1ccc(C(F)(F)F)cc1 | inconclusive: 35.5 µM [inhibitor, single point] | –
Cc1ccc(-n2ncc(C(=O)N3CCN(c4cccc(C)c4C)CC3)c2C2CCNCC2)c(C)c1 | inconclusive: 22.4 µM [inhibitor, single point] | –
CCOc1cc(C(=O)N/N=C/C(Br)=C/c2ccccc2)cc(OCC)c1OCC | inconclusive: 8.91 µM [inhibitor, partial curve] | –
COc1ccccc1-c1c(C)nn2c(N)c(-c3ccc(Cl)cc3)cnc12 | – | inactive: 2.47%
COC(=O)c1ccc(NC(=O)C(=O)N2CCN(C(=S)Nc3ccccc3OC)CC2)cc1 | inconclusive: 2.82 µM [inhibitor, partial curve, poor fit] | –
OC(CN1CCN(C(c2ccccc2)c2ccccc2)CC1)c1ccccc1 (centres undefined) | – | inactive: -24.4%
CCNC(=O)N1C(CC(=O)OCC)C(=O)NC2CCCCC21 (centres undefined) | inconclusive: 0.631 µM [inhibitor, full curve] | –
CC1=C(C(=O)N2CCOCC2)CC(CC(=O)NCCc2ccccn2)C(=O)N1Cc1ccccc1 (centres undefined) | inconclusive: 25.1 µM [inhibitor, single point] | –

Structure (SMILES) | Potency | activity, negative = inhibition
CCc1ccc2c(c1)NC(=O)C2(C)Cc1ccc(OC(F)(F)F)cc1 (centres undefined) | inconclusive: 35.5 µM [inhibitor, single point] | –
COc1ccccc1NC(=O)Cc1c(F)cccc1Cl | – | inactive: 7.84%
CCCn1c(SCC(=O)NC2CC2)nnc1-c1ccccn1 | – | inactive: 5.72%
CCC(=O)N1CCc2cc(S(=O)(=O)NCCC(=O)Nc3cccc(SC)c3)ccc21 | – | inactive: -19.5%
COc1ccc2oc(=O)c(-c3nc4ccc(C)cc4[nH]3)cc2c1 | – | inactive: 95.4%
Fc1ccc(N2N=C(c3cccs3)CC2c2ccccc2)cc1 (centres undefined) | inconclusive: 5.62 µM [inhibitor, partial curve, poor fit] | –
CN(C)CCCN(C(=O)c1ccc(S(=O)(=O)N2CCc3ccccc32)cc1)c1nc2c(Cl)cccc2s1 | inconclusive: 28.2 µM [inhibitor, single point] | –
O=C(CCC(=O)OCC(=O)c1ccccc1)NC1CCCCC1 | inconclusive: 15.8 µM [inhibitor, single point] | –
Cc1ccc(CNC(=O)C2CCCN(c3nc4c(C)cc(C)cc4s3)C2)cc1 (centres undefined) | – | inactive: -10.2%
Nc1nonc1-n1nnc(C(=O)N/N=C\c2ccncc2)c1CN1CCCCC1 | inconclusive: 7.08 µM [inhibitor, partial curve] | –
CCCCCCCCCCCCS[C@H]1CS(=O)(=O)C[C@@H]1O | inconclusive: 8.91 µM [inhibitor, partial curve, poor fit] | –
O=C(Nc1ccc(NC(=O)c2cccs2)cc1)c1ccc(Cl)cc1 | – | inactive: -8.94%
COc1cc2cnc(-c3ccccc3)c(-c3ccc(C(F)(F)F)cc3)c2cc1OC | active: 11.2 µM | –
COC(=O)c1ccccc1NC(=O)Cn1ncc2c(C)n(Cc3ccc(F)cc3)c(C)c2c1=O | inconclusive: 11.2 µM [inhibitor, partial curve] | –
O=C(NCCCN1CCCC1=O)c1ccc2c(c1)OCO2 | inconclusive: 35.5 µM [inhibitor, single point] | –
CCc1ccc(NC(=O)N(CCCOC(C)C)C2CCN(C(C)=O)CC2)cc1 | inconclusive: 6.31 µM [inhibitor, single point] | –
COc1ccc(-c2coc3c(C(=O)NCc4cccs4)cccc23)c(C)c1 | inconclusive: 35.5 µM [inhibitor, single point] | –
Cc1cc2oc(C(=O)N(Cc3ccc(N(C)C)cc3)CC3CCCO3)c(C)c2cc1C (centres undefined) | inconclusive: 20 µM [inhibitor, single point] and inconclusive: 35.5 µM [inhibitor, single point] | –
CCC1=Nc2cc(C(=O)NCCCOC(C)C)ccc2Sc2ccc(C)cc21 | inconclusive: 12.6 µM [inhibitor, partial curve, poor fit] | –
COc1ccc(-c2cnnn2-c2ccc(NC(=O)c3ccc(S(=O)(=O)N4CCCCC4)cc3)cc2)cc1OC | inconclusive: 2.51 µM [inhibitor, partial curve, poor fit] | –
COc1ccc(-c2noc(-c3cc(C(C)C)[nH]n3)n2)cc1 | inconclusive: 20 µM [inhibitor, partial curve, poor fit] | –
Cc1cnc(NC(=O)Cc2ccccc2Cl)s1 | – | inactive: -13.6%
CN1C2C=C(N(CCc3c[nH]c4ccccc34)C(=O)c3ccc(Cl)cc3)CC1CC2 (centres undefined) | inconclusive: 10 µM [inhibitor, single point] | –

Source: PubChem BioAssay AID588855 (National Center for Advancing Translational Sciences (NCATS), 2011)
